Values marked as one replicate rest on one cluster of the flow cell; about a third of the high ones do not repeat.

For the data set, the system named is ATP. Put plainly: switch fluorescence ratio, 500 uM ATP over buffer (Cy3 cluster intensity, sum of 5 cycles each) (fold (ratio)); higher = stronger signal-on switching upon ATP binding; sequences stand for … in TCGTCGGCAGCGTCAGATGTGTATAAGAGACAGTTTTTTTTTTTTTTTTTTTTTTTTT…TC. Conditions: aptamer strand: ATP DNA aptamer (quencher-CACCTGGGGGAGTATTGCGGAGGAAGG + anchor), 100 nM annealed; ATP concentration: 500 uM; one replicate. Summed up:
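Cy3-labelled switching-strand clusters on a modified Illumina MiSeq flow-cell were annealed to 100 nM quencher-labelled ATP aptamer and imaged first in selection buffer, then after 15 min with 500 uM ATP at 22 °C. NaOH stripping and re-annealing separated each of five buffer/ATP cycles, and clusters outside 100-1000 RFU were excluded. The fluorescence ratio sums target-cycle Cy3 intensity over buffer-cycle Cy3 intensity per cluster and averages it per switch-domain sequence.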
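Also: ATP exposure 15 min at 22 °C before imaging.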

On to TCCGGCGGT, for which the switch fluorescence ratio was found to be 1.76.

Take CGCATGGGAG: the switch fluorescence ratio stood at 1.02.

On to TCGAAGGGAT, for which the switch fluorescence ratio was 1.01.

With CGCGCCTAAA, the switch fluorescence ratio amounted to 0.96.

Take GAATAGGGTC: the switch fluorescence ratio worked out at 0.985.

Consider TACTTAGCAA, for which the switch fluorescence ratio was 2.62.

Regarding AATTTTTGGA, the switch fluorescence ratio amounted to 0.998.

Turning to AGGCGCGTCC, the switch fluorescence ratio is 0.966.

For the sequence TACAAGTATG, the switch fluorescence ratio was 1.04.

Turning to TATTATGGC, the switch fluorescence ratio is 0.902.

On to CCGGGGTCTT, for which the switch fluorescence ratio is 1.03.

With AGGTTGGCTA, the switch fluorescence ratio worked out at 0.933.

On to CTTTAGGCTG, for which the switch fluorescence ratio amounted to 0.947.

In the case of ATATTTTCTC, the switch fluorescence ratio was determined as 1.02.

On to TTGCAATCCA, for which the switch fluorescence ratio was found to be 2.85.

On to CCGATCTATG, for which the switch fluorescence ratio came to 1.06.

Turning to GCTGTGCCCT, the switch fluorescence ratio is 0.977.

For the sequence TGGGTGTCT, the switch fluorescence ratio stood at 0.978.

As to CACGTCTATT, the switch fluorescence ratio worked out at 1.05.

In the case of AAGATCTCAG, the switch fluorescence ratio was determined as 0.99.

On to TTTCGGCAGA, for which the switch fluorescence ratio was found to be 1.22.

TCAGATCTAG: the switch fluorescence ratio worked out at 1.01.

For GGGTGAACCT, the switch fluorescence ratio was determined as 1.21.

CCTCGAGGGA: the switch fluorescence ratio was 1.03.

On to CACGAACATC, for which the switch fluorescence ratio is 1.29.

With CGCAACACGT, the switch fluorescence ratio turned out to be 3.44.

Regarding TAACAGCCAC, the switch fluorescence ratio stood at 1.15.

In the case of TTGTGTGTGC, the switch fluorescence ratio turned out to be 1.05.

As for TATAGAATCA, the switch fluorescence ratio came out at 0.985.

TGGGGTCCG: the switch fluorescence ratio came out at 1.01.

In the case of TCCCGCTCTA, the switch fluorescence ratio amounted to 1.46.

Consider CTAAATTC, for which the switch fluorescence ratio was found to be 1.02.

Regarding AGAGGGAAAT, the switch fluorescence ratio worked out at 0.96.

For the sequence ATACACGAAC, the switch fluorescence ratio turned out to be 1.49.

For TCCGGTGGTC, the switch fluorescence ratio worked out at 0.995.

ACTAACGGCA: the switch fluorescence ratio was 1.38.

With GAGTCCAACT, the switch fluorescence ratio stood at 1.

With AGGCATACCA, the switch fluorescence ratio was 1.02.

Take AACTTCTCGG: the switch fluorescence ratio is 1.06.

Turning to AGATGCGGGA, the switch fluorescence ratio was 1.

Consider ACGGGACCAT, for which the switch fluorescence ratio was determined as 1.21.

Turning to CAGGAACATG, the switch fluorescence ratio is 0.963.

Turning to CTTATATAAT, the switch fluorescence ratio is 1.01.

For the sequence ATGTTATTTC, the switch fluorescence ratio is 0.925.

With CACTCGCTTT, the switch fluorescence ratio came out at 1.07.

For CGCTTCCTAA, the switch fluorescence ratio was 1.05.

GTTCTAGAGC: the switch fluorescence ratio turned out to be 1.07.

With CCCGTTAACG, the switch fluorescence ratio was 0.988.

For ATGGCGGGAG, the switch fluorescence ratio worked out at 0.975.

In the case of CTCGAATGTG, the switch fluorescence ratio was determined as 1.

Regarding ACATCCGTTC, the switch fluorescence ratio amounted to 1.13.

On to TTGAGACCGC, for which the switch fluorescence ratio came out at 1.08.

CGCGCTAGGT: the switch fluorescence ratio stood at 1.04.

For AGGCGTGAGT, the switch fluorescence ratio worked out at 1.02.

For the sequence GTATTGGGAT, the switch fluorescence ratio came out at 0.992.

In the case of TAAGAAGC, the switch fluorescence ratio stood at 1.03.

As for GTTCTGGAAT, the switch fluorescence ratio was determined as 1.1.

Take GAGCATACGG: the switch fluorescence ratio worked out at 1.2.

In the case of TCGGCCCGCG, the switch fluorescence ratio is 1.04.

For TAAGGAGAGA, the switch fluorescence ratio came to 0.999.

Turning to CGGTAATTGT, the switch fluorescence ratio was 1.2.

For ATTAGAAGTG, the switch fluorescence ratio worked out at 0.986.

Take TAAGCTCATG: the switch fluorescence ratio worked out at 0.993.

For ATGGCAAAAT, the switch fluorescence ratio was found to be 1.01.

As to CGTGTATCAT, the switch fluorescence ratio stood at 1.04.

Consider TCTTCGGGCA, for which the switch fluorescence ratio turned out to be 1.06.

AAGACACCAC: the switch fluorescence ratio worked out at 1.21.
